This is one part of the list. The full chains were built here from the parent and the listed change. Values near 0.05 are background.
B1: TEV protease; numbered along this chain (parent)
chain: MGESLFKGPRDYNPISSSICHLTNESDGHTTSLYGIGFGPFIITNKHLFRRNNGTLVVQSLHGVFKVKDTTTLQQHLVDGRDMIIIRMPKDFPPFPQKLKFREPQREERICLVTTNFQTKSMSSMVSDTSCTFPSGDGIFWKHWIQTKDGQCGSPLVSTRDGFIVGIHSASNFTNTNNYFTSVPKNFMELLTNQEAQQWVSGWRLNADSVLWGGHKVFMVKPEEPFQPVKEATQL

Variants of: B1
Assay: raw area under fraction-flipped curve 0-4 h after induction (AUC4h, not background-subtracted), DNA-recorder readout of cleavage of the substrate (dimensionless); higher = more cleavage of the substrate by the protease variant
Settings: temperature: 34 °C; time window: 0-4 h after rhamnose induction
Experimental: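 In vivo DNA recorder in E. coli TOP10(DE3) ΔrhaA at 34 °C. Each TEVp single-site mutant (parent TEVp 0) is paired with a single-site variant of the 7-mer TEVs (canonical ENLYFQ|S). The substrate sits between flexible linkers in a Bxb1-sfGFP-TEVs-SsrA fusion, so cleavage stabilises Bxb1 and speeds flipping of a recombination array, read by NGS. The value is the raw area under the fraction-flipped curve over 0-4 h after rhamnose induction (AUC4h), with ≥20 reads per time point. It is not background-subtracted; inactive controls average about 0.047.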
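Further: Bxb1 expression induced with 0.2% (w/v) L-rhamnose at OD600 near 0.5, cultures sampled hourly, flipped fraction per protease–substrate barcode pair counted by paired-end Illumina sequencing.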

Variant	area with substrate EALYFQS	area with substrate ECLYFQS	area with substrate EDLYFQS	area with substrate EHLYFQS	area with substrate EILYFQS	area with substrate ELLYFQS	area with substrate EMLYFQS	area with substrate EPLYFQS	area with substrate ESLYFQS	area with substrate EYLYFQS	area with substrate EELYFQS	area with substrate EGLYFQS	area with substrate EKLYFQS	area with substrate EQLYFQS	area with substrate ERLYFQS	area with substrate EVLYFQS	area with substrate EWLYFQS	area with substrate EFLYFQS	area with substrate ETLYFQS
I139S	0.221	0.129	0.155	0.16	0.12	0.122	0.17	0.122	0.12	0.117									
I139G	0.12	0.112		0.13	0.137	0.149		0.147	0.115		0.12	0.0756	0.104	0.157	0.103	0.0988	0.121		
M83T	0.069	0.0675	0.0909	0.0742			0.0859	0.0711	0.0742		0.0797	0.0794		0.083	0.068	0.0825			
M83W	0.0649	0.093	0.0674			0.057	0.0598		0.081	0.102	0.0376	0.0682	0.0613	0.0732	0.066	0.0627	0.058		
F140K	0.0705	0.0687		0.0653	0.0535		0.0468		0.0609				0.0423	0.0883	0.0432				
F140C	0.0613	0.059		0.0653	0.0649			0.0619	0.066		0.0648	0.0726	0.0605		0.0684	0.0656			
Q105C	0.106	0.0997	0.112		0.0867				0.0914	0.091	0.133	0.0959	0.0967		0.127	0.0992			
Q105M	0.122	0.1		0.105	0.0981	0.0878			0.104	0.0662	0.103	0.0821	0.0973	0.131	0.0505	0.0915	0.0903	0.115	0.103
K142E	0.0935	0.0856	0.14	0.0975	0.0751	0.0824	0.107	0.112	0.107		0.0897	0.0737	0.0774	0.0808	0.0928	0.0683	0.0908		0.0835
N116Q	0.123	0.113	0.113	0.142	0.0923	0.0985			0.102			0.103	0.103	0.129	0.109	0.0952	0.135	0.0878	0.112
N116D	0.134	0.0761	0.113		0.1	0.106	0.105	0.11	0.0744	0.0967	0.124	0.0923	0.113	0.123	0.115	0.123			
F133E	0.122			0.121	0.114			0.114	0.096		0.138		0.175	0.136	0.0992			0.091	
V126F	0.185	0.121		0.136	0.1	0.11		0.146	0.112	0.112			0.116	0.156	0.111	0.0895	0.101		0.16
V126W	0.137	0.151		0.124	0.078	0.1	0.133	0.14	0.112		0.145		0.133	0.124	0.117	0.102		0.0875	0.145
S127D	0.095	0.0999		0.0946	0.0923	0.0732	0.101		0.113				0.104	0.0898	0.0676	0.0641		0.0975	
D137L	0.0589	0.0786	0.118	0.122	0.0869			0.105	0.0837	0.111	0.0932	0.106			0.078	0.1	0.0896		0.117
D137N	0.115	0.0938	0.085	0.0701	0.0876	0.0886	0.121	0.113	0.0942		0.11		0.0678	0.116	0.112	0.1	0.0981		0.102
D137R	0.0951		0.104	0.0829			0.0831	0.087	0.0838			0.0755		0.0846	0.0888	0.0725			0.0822
R102C	0.0577	0.0504		0.0567		0.0611	0.061	0.0688	0.0633	0.0479	0.0598		0.0383	0.0635	0.0629	0.0553	0.071		0.0554
R102A	0.0806	0.079	0.0745		0.0564		0.0657	0.0786	0.0629		0.0769	0.0624	0.0781	0.0713			0.0698		
M122E	0.115	0.0962		0.121	0.0989	0.0862	0.124	0.128	0.115	0.136	0.115	0.0924	0.0928	0.102	0.0908		0.112		0.0989
M122Q	0.129	0.0886	0.119	0.115		0.102	0.0973		0.0973	0.0617			0.105	0.132		0.101	0.101	0.122	0.154
I85P	0.0866	0.0457	0.0383	0.0433	0.0253			0.0231	0.0358				0.0255	0.0828	0.0406	0.0389	0.0235		
W141M	0.0859	0.0618	0.117	0.0689	0.058	0.0664	0.0756	0.0586	0.0654		0.0698	0.0595	0.0548	0.0727		0.0639			0.0771
M125V	0.13		0.0975	0.144		0.0903	0.121	0.134	0.132				0.118	0.138	0.122	0.11	0.0824		0.105
M125T	0.126	0.105	0.134	0.111	0.0951	0.106	0.106	0.109	0.0927	0.118			0.105	0.121	0.103	0.0984	0.105		

Variant	area with substrate EALYFQS	area with substrate ECLYFQS	area with substrate EDLYFQS	area with substrate EHLYFQS	area with substrate EILYFQS	area with substrate ELLYFQS	area with substrate EMLYFQS	area with substrate EPLYFQS	area with substrate ESLYFQS	area with substrate EYLYFQS	area with substrate EELYFQS	area with substrate EGLYFQS	area with substrate EKLYFQS	area with substrate EQLYFQS	area with substrate ERLYFQS	area with substrate EVLYFQS	area with substrate EWLYFQS	area with substrate EFLYFQS	area with substrate ETLYFQS
M125N	0.108	0.122	0.114	0.133	0.111	0.116	0.0974		0.088		0.154	0.0919	0.0957	0.114	0.0997	0.102	0.0991		0.117
K100L	0.13	0.122	0.088	0.169	0.0988		0.0884	0.106	0.0309		0.162				0.121	0.0706	0.0923		
K100V	0.114	0.101	0.117		0.108				0.109	0.102	0.125		0.0882	0.112	0.111	0.0942			
K100E	0.106	0.117		0.097	0.09	0.0759		0.0869	0.112			0.102			0.088			0.0649	
R106F	0.125	0.0983	0.125	0.101	0.0994	0.0619		0.139	0.112		0.121	0.0884		0.105	0.0951	0.121			0.0985
S123K	0.131	0.0837		0.143	0.1	0.101		0.14	0.12		0.149	0.115	0.0951	0.132	0.0915	0.102	0.102	0.13	
T114F	0.134	0.109		0.126				0.104	0.107	0.0939	0.131	0.0977	0.0866	0.129	0.0905	0.0842	0.124		0.11
I84W	0.0464	0.0596		0.0535	0.0413	0.0694	0.0437	0.0569	0.0523	0.0586		0.0674	0.0605	0.0438		0.0539	0.0591		
F117H	0.111	0.11	0.165	0.113	0.109	0.0947	0.101	0.131	0.116	0.113	0.133		0.103	0.129	0.115	0.103			
S124W	0.116	0.0803	0.0524	0.1		0.0803	0.0927		0.0884				0.12	0.136	0.0983		0.0955		0.091
V78C	0.126	0.0977	0.0579	0.12	0.095	0.101	0.14	0.104	0.107	0.105	0.116	0.0897	0.0998	0.108	0.0827	0.107	0.0768		0.119
P94G	0.138	0.113			0.0941	0.117	0.151	0.144	0.116		0.141	0.133	0.142	0.165	0.108	0.115	0.0928	0.12	
E107A	0.143	0.0907	0.165		0.117		0.119	0.118	0.0959	0.142	0.153	0.0626	0.134	0.115	0.114	0.104	0.0799		
E108T	0.0894	0.0723		0.0826	0.0565	0.0553	0.0744	0.0609	0.0921		0.1		0.104	0.0773	0.0613		0.0669	0.0727	0.0605
T115N	0.0802	0.12		0.0611	0.0605	0.0933		0.0748	0.148		0.157	0.138	0.105	0.0527			0.0646		
T132V	0.107	0.0956	0.115	0.114	0.109	0.104		0.142	0.0989	0.109	0.0984	0.085	0.105	0.116	0.0797	0.0782	0.0999		
V113P	0.0637	0.0602			0.0756	0.0694		0.0847	0.0694	0.0737	0.0662	0.0758	0.075	0.0736	0.0727	0.0592	0.0522	0.0712	0.0771
T129I	0.0987	0.0793	0.141				0.0645	0.0804	0.0903	0.0614	0.0951		0.0322	0.075	0.118	0.091	0.0528	0.0305	
T129W	0.105			0.0877	0.0692	0.0988		0.107	0.0961	0.112	0.0951		0.0894	0.102	0.0914	0.0705	0.0857	0.0973	
S135A	0.0729			0.0902	0.0999	0.0816	0.088	0.0873	0.0821		0.088	0.0618	0.157		0.0794	0.0825			0.0608
E103A	0.13		0.123		0.11			0.131	0.131	0.101	0.112	0.108				0.0882	0.0929		
E103Q	0.114	0.096	0.0929	0.0883	0.0784	0.087	0.109	0.148	0.0976	0.107	0.112	0.0887	0.121	0.1	0.109	0.106	0.0967		0.129
E103C	0.127	0.116		0.131	0.089	0.134	0.104	0.0998	0.114			0.1		0.118	0.11		0.1		
C111Y	0.13	0.0896				0.0751	0.134				0.0948	0.0717	0.113	0.119	0.129	0.0924			0.114
C111T	0.102	0.12	0.111	0.164	0.0844			0.101	0.115	0.126	0.123	0.0996		0.141	0.0924	0.0911	0.123		

Source: the supplement of paper PMC12217912
